{
  "source": "patent US20260216365A1",
  "about": "“ANTIBODY-DRUG CONJUGATES AGAINST THE RECEPTOR TYROSINE KINASE EPHA5” (Rutgers, The State University of New Jersey, priority 2021, published 2026)",
  "molecules": {"B1": {"name": "VH5Vk3-ThioBridge®-VCP-MMAE: VH5Vk3 antibody, ThioBridge disulfide rebridging, Val-Cit-PAB linker, MMAE payload, DAR 4; ADC1 in Examples 5-9 (conjugate)", "heavy": "EVQLVESGGGLVQPGGSLKLSCAASGFTFSTFGIHWVRQAPGKGLEWVAYISGASTTIYYADSVKGRFTISRDNSKNTLYLQMNSLRAEDTAVYYCARYGTSFPYGLDYWGQGTLVTVSSASTKGPSVFPLAPSSKSTSGGTAALGCLVKDYFPEPVTVSWNSGALTSGVHTFPAVLQSSGLYSLSSVVTVPSSSLGTQTYICNVNHKPSNTKVDKRV[letters of human IgG1 Fc left out]", "light": "DIVMTQSPDSLAVSLGERATINCKASQSVDYDGDSYMNWYQQKPGKAPKLLIYGASNLESGIPDRFSGSGSGTDFTLTISRLEPEDAAVYYCQQSNEDPFTFGQGTKLEIKRTVAAPSVFIFPPSDEQLKSGTASVVCLLNNFYPREAKVQWKVDNALQSGNSQESVTEQDSKDSTYSLSSTLTLSKADYEKHKVYACEVTHQGLSSPVTKSFNRGEC"}},
  "key": {"[1]": {"test_system": "PDX TM00096 (BR085F)", "assay": "PDX model TM00096 of triple negative breast cancer", "format": "in vivo, mouse"}, "[2]": {"test_system": "PDX TM00226 (LG1179F)", "assay": "PDX model TM00226 of lung adenocarcinoma", "format": "in vivo, mouse"}, "[3]": {"test_system": "H460 cells (EphA5-positive)", "assay": "Time-course of cell death (Green Object Count), EphA5-positive cells", "format": "cell-based, human", "settings": "dose- and time-dependent"}, "[4]": {"test_system": "H460-derived xenograft", "assay": "H460-derived xenograft model of human lung cancer", "settings": "ADC 10 mg/kg i.v. every 5 days, 3 doses"}, "[5]": {"test_system": "H522, H460, A549 and H1299 cells", "assay": "Incucyte cytotoxicity, cell confluence over time", "format": "cell-based, human", "settings": "EphA5 expression H522 (++++)>H460 (+++)>A549 (++)=H1299 (++)"}, "[6]": {"test_system": "PDX TM00219 (LG1049F)", "assay": "PDX model TM00219 of lung adenocarcinoma"}, "[7]": {"test_system": "PDX TM00098 (BR1126F)", "assay": "PDX model TM00098 of triple negative breast cancer", "settings": "here ADC2 = VH5Vk3-ThioBridge-VCP-(SN-38)2"}, "[8]": {"test_system": "H522-derived xenograft", "assay": "H522-derived xenograft model of human lung cancer"}, "[9]": {"test_system": "H226 (EphA5-negative)", "assay": "Time-course of cell death (Green Object Count), EphA5-negative cells", "format": "cell-based, human"}, "[10]": {"test_system": "PDX TM00188 (LG0520F)", "assay": "PDX model TM00188 of lung squamous cell carcinoma", "format": "in vivo, mouse", "settings": "here ADC2 = VH5Vk3-ThioBridge-VCP-(SN-38)2"}, "[11]": {"test_system": "triple-negative invasive ductal carcinoma breast tumor PDX", "assay": "Patient-derived xenograft (PDX) of triple-negative invasive ductal carcinoma of the breast (Example 4)", "format": "in vivo, mouse", "settings": "5 doses of 10 mg/kg every 7 days; control tumors reached endpoints within 16 days"}, "[12]": {"test_system": "A549-derived xenograft", "assay": "A549-derived xenograft model of human lung cancer"}, "[13]": {"settings": "of 12 tumors (ADC1), of 10 tumors (ADC2), here ADC2 = VH4Vk3-ThioBridge-VCP-MMAE"}, "[14]": {"settings": "5 weekly doses 10 mg/kg, here ADC2 = VH5Vk3-ThioBridge-VCP-(SN-38)2"}, "[15]": {"settings": "ADC 10 mg/kg i.v. weekly, 3 doses"}, "[16]": {"settings": "ADC 10 mg/kg i.v. weekly, 3 doses, VH5Vk3 ADC: first study, n=10"}},
  "data": [
    {"molecule": "B1", "values": [
      {"measurement": "change in body weight before and after treatment", "setting": "[1]; 10 mg/kg weekly, 5 doses (ADC1, ADC2) or 4 doses (ADC3, ADC4), here ADC2 = VH4Vk3-ThioBridge-VCP-MMAE", "result": "no significant changes in body weight"},
      {"measurement": "tumor volume response", "setting": "[1]; 5 weekly doses 10 mg/kg tail vein, here ADC1 = VH5Vk3-, ADC2 = VH4Vk3-ThioBridge-VCP-MMAE", "result": "full and sustained regression of tumors"},
      {"measurement": "number of tumors regressed completely", "setting": "[1]; [13]", "result": 4},
      {"measurement": "number of tumors remaining at the end of the study", "setting": "[1]; [13]", "result": "Eight"},
      {"measurement": "tumor volume response", "setting": "[2]; 5 weekly doses 10 mg/kg tail vein, ADC1 n=8 tumors, here ADC2 = VH5Vk3-ThioBridge-VCP-(SN-38)2", "result": "sustained regression of tumors"},
      {"measurement": "change in body weight before and after treatment", "setting": "[2]; [14]", "result": "no significant changes in body weight"},
      {"measurement": "number of tumors regressed completely", "setting": "[2]; of 8 tumors", "result": 1},
      {"measurement": "number of tumors remaining at the end of the study", "setting": "[2]; of 8 tumors", "result": "Seven"},
      {"measurement": "killing of EPHA5+ cells", "setting": "[3]", "result": "able to kill EPHA5+ cells"},
      {"measurement": "change in body weight, before first dose versus termination", "setting": "[4]", "result": "no significant changes in body weight"},
      {"measurement": "number of tumors with partial regression", "setting": "[4]; n=9", "result": 8},
      {"measurement": "ADC-induced cell death (decrease of cell confluence)", "setting": "[5]", "result": "increasing amounts of ADC induced cell death which is dependent on the levels of expression of the target EphA5"},
      {"measurement": "tumor volume response", "setting": "[6]; 5 weekly doses 10 mg/kg tail vein, here ADC2 = VH5Vk3-ThioBridge-VCP-(SN-38)2", "result": "full and sustained regression of tumors"},
      {"measurement": "change in body weight before and after treatment", "setting": "[6]; [14]", "result": "no significant changes in body weight"},
      {"measurement": "number of tumors regressed completely", "setting": "[6]; of 11 tumors", "result": 6},
      {"measurement": "number of tumors remaining at the end of the study", "setting": "[6]; of 11 tumors", "result": "Five"},
      {"measurement": "tolerability", "setting": "[7]; 10 mg/Kg weekly for 5 doses", "result": "well tolerated"},
      {"measurement": "tumor volume response", "setting": "[7]; 5 weekly doses 10 mg/kg tail vein, 50-day study", "result": "full and sustained regression of tumors"},
      {"measurement": "change in body weight", "setting": "[7]; 5 weekly doses 10 mg/kg", "result": "no significant changes in body weight"},
      {"measurement": "weight of tumors at study termination", "setting": "[7]", "result": "completely regressed and tumor weight could not be determined"},
      {"measurement": "change in body weight, before first dose versus termination", "setting": "[8]; [15]", "result": "no significant changes"},
      {"measurement": "time for which regression was sustained", "setting": "[8]; [16]", "result": 60, "unit": "days"},
      {"measurement": "tumor response", "setting": "[8]; [16]", "result": "full regression was observed for all tumors of group 3"},
      {"measurement": "time for which regression was sustained", "setting": "[8]; second study (FIG. 88), n=5", "result": 50, "unit": "days"},
      {"measurement": "tumor response", "setting": "[8]; second study (FIG. 88), n=5, ADC 10 mg/kg i.v. weekly, 3 doses", "result": "full regression in all tumors of the experimental group"},
      {"measurement": "killing of EPHA5− cells", "setting": "[9]", "result": "but not EPHA5− cells"},
      {"measurement": "tumor volume response", "setting": "[10]; 5 weekly doses 10 mg/kg tail vein, ADC1 n=16 tumors", "result": "complete and sustained regression of all tumors"},
      {"measurement": "change in body weight before and after treatment", "setting": "[10]; 5 weekly doses 10 mg/kg", "result": "no significant changes in body weight"},
      {"measurement": "weight of tumors at study termination", "setting": "[10]", "result": "tumor weight could not be determined"},
      {"measurement": "tumor growth", "setting": "[11]", "result": "little measurable tumor growth"},
      {"measurement": "change in body weight, before first dose versus termination", "setting": "[12]; ADC 10 mg/kg i.v.", "result": "No significant differences in the body weights"},
      {"measurement": "tumor response", "setting": "[12]; [15]", "result": "full regression of all tumors"},
      {"measurement": "number of tumors with full regression", "setting": "[12]; ADC 10 mg/kg i.v. weekly, 3 doses, ADC group n=5", "result": 5},
      {"measurement": "response of tumors progressing after the SN-38 ADC", "setting": "[12]; MMAE ADC 10 mg/kg on days 20, 26 and 32 after three weekly doses of VH5Vk3-ThioBridge-(VCP-SN-38)2", "result": "tumor growth inhibition sustained from day 20-38"}
    ]}
  ]
}
